Assay results taken from the supplement of paper PMC12217912.
This is one part of the list. The full chains were built here from the parent and the listed change. Inactive controls read about 0.05.

B1: TEV protease; numbered along this chain (parent)
chain: MGESLFKGPRDYNPISSSICHLTNESDGHTTSLYGIGFGPFIITNKHLFRRNNGTLVVQSLHGVFKVKDTTTLQQHLVDGRDMIIIRMPKDFPPFPQKLKFREPQREERICLVTTNFQTKSMSSMVSDTSCTFPSGDGIFWKHWIQTKDGQCGSPLVSTRDGFIVGIHSASNFTNTNNYFTSVPKNFMELLTNQEAQQWVSGWRLNADSVLWGGHKVFMVKPEEPFQPVKEATQL

Variants of: B1
Test: raw area under fraction-flipped curve 0-4 h after induction (AUC4h, not background-subtracted), DNA-recorder readout of cleavage of the substrate (dimensionless); higher = more cleavage of the substrate by the protease variant
Conditions: temperature: 34 °C; time window: 0-4 h after rhamnose induction
Method: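 In vivo DNA recorder in E. coli TOP10(DE3) ΔrhaA at 34 °C. Each TEVp single-site mutant (parent TEVp 0) is paired with a single-site variant of the 7-mer TEVs (canonical ENLYFQ|S). The substrate sits between flexible linkers in a Bxb1-sfGFP-TEVs-SsrA fusion, so cleavage stabilises Bxb1 and speeds flipping of a recombination array, read by NGS. The value is the raw area under the fraction-flipped curve over 0-4 h after rhamnose induction (AUC4h), with ≥20 reads per time point. It is not background-subtracted; inactive controls average about 0.047.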
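Also: Bxb1 expression induced with 0.2% (w/v) L-rhamnose at OD600 near 0.5, cultures sampled hourly, flipped fraction per protease–substrate barcode pair counted by paired-end Illumina sequencing.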

Variant	area with substrate ENLAFQS	area with substrate ENLDFQS	area with substrate ENLEFQS	area with substrate ENLFFQS	area with substrate ENLHFQS	area with substrate ENLKFQS	area with substrate ENLLFQS	area with substrate ENLNFQS	area with substrate ENLPFQS	area with substrate ENLQFQS	area with substrate ENLRFQS	area with substrate ENLSFQS	area with substrate ENLVFQS	area with substrate ENLWFQS	area with substrate ENLIFQS	area with substrate ENLCFQS	area with substrate ENLTFQS	area with substrate ENLMFQS	area with substrate ENLGFQS
MGESLFKGPRDYNPISSSICHLTNESDGHTTSLYGIGFGPFIITNKHLFRRNNGTLVVQSLHGVFKVKDTTTLQQHLVDGRDMIIIRMPKDFPPFPQKLKFREPQREERICLVTTNFQTKSMSSMVSDTSCTFPSGDGIFWKHWIQTKDGQCGSPLVSTRDGFIVGIHSASNFTNTNNYFTSVPKNFMELLTNQEAQQWVSGWRLNADSVLWGGHKVFMVKPEEPFQPVNEATQL [K230N]	0.047	0.0691	0.0582	0.104	0.0708	0.0756	0.0891	0.0623	0.0729	0.0726	0.065	0.0634	0.093	0.0627					
MGESLFKGPRDYNPISSSICHLTNESDGHTTSLYGIGFGPFIITNKHLFRRNNGTLVVQSLHGVFKVKDTTTLQQHLVDGRDMIIIRMPKDFPPFPQKLKFREPQREERICLVTTNFQTKSMSSMVSDTSCTFPSGDGIFWKHWIQTKDGQCGSPLVSTRDGFIVGIHSASNFTNTNNYFTSVPKNFMELLTNQEAQQWVSGWRLNADSVLWGGHKVFMVKPEEPFQPVKEATWL [Q234W]	0.0659	0.0546	0.0613	0.084	0.0442	0.0541		0.0636	0.0667	0.0713		0.0544		0.065	0.0661				
MGEHLFKGPRDYNPISSSICHLTNESDGHTTSLYGIGFGPFIITNKHLFRRNNGTLVVQSLHGVFKVKDTTTLQQHLVDGRDMIIIRMPKDFPPFPQKLKFREPQREERICLVTTNFQTKSMSSMVSDTSCTFPSGDGIFWKHWIQTKDGQCGSPLVSTRDGFIVGIHSASNFTNTNNYFTSVPKNFMELLTNQEAQQWVSGWRLNADSVLWGGHKVFMVKPEEPFQPVKEATQL [S4H]		0.0611	0.0706	0.104	0.0818	0.079		0.055		0.0695				0.0878	0.0847	0.0628	0.0816		
MGESLFKGFRDYNPISSSICHLTNESDGHTTSLYGIGFGPFIITNKHLFRRNNGTLVVQSLHGVFKVKDTTTLQQHLVDGRDMIIIRMPKDFPPFPQKLKFREPQREERICLVTTNFQTKSMSSMVSDTSCTFPSGDGIFWKHWIQTKDGQCGSPLVSTRDGFIVGIHSASNFTNTNNYFTSVPKNFMELLTNQEAQQWVSGWRLNADSVLWGGHKVFMVKPEEPFQPVKEATQL [P9F]		0.0707	0.0643	0.0755	0.0609	0.0601	0.0698	0.0594	0.0523	0.0769	0.0699			0.0807	0.0629	0.0612		0.0557	
MGESLFKGPRDYIPISSSICHLTNESDGHTTSLYGIGFGPFIITNKHLFRRNNGTLVVQSLHGVFKVKDTTTLQQHLVDGRDMIIIRMPKDFPPFPQKLKFREPQREERICLVTTNFQTKSMSSMVSDTSCTFPSGDGIFWKHWIQTKDGQCGSPLVSTRDGFIVGIHSASNFTNTNNYFTSVPKNFMELLTNQEAQQWVSGWRLNADSVLWGGHKVFMVKPEEPFQPVKEATQL [N13I]		0.0641	0.06	0.072	0.0686	0.0785	0.0698	0.0658			0.0767	0.0654		0.0835		0.0771	0.0777	0.0632	
MGESLFKGPRDYNPKSSSICHLTNESDGHTTSLYGIGFGPFIITNKHLFRRNNGTLVVQSLHGVFKVKDTTTLQQHLVDGRDMIIIRMPKDFPPFPQKLKFREPQREERICLVTTNFQTKSMSSMVSDTSCTFPSGDGIFWKHWIQTKDGQCGSPLVSTRDGFIVGIHSASNFTNTNNYFTSVPKNFMELLTNQEAQQWVSGWRLNADSVLWGGHKVFMVKPEEPFQPVKEATQL [I15K]		0.0627		0.057		0.0538	0.0588	0.0722	0.0605	0.0566	0.0755	0.0659	0.0567		0.0635	0.0753			0.0646
MGESLFKGPRDYNPISASICHLTNESDGHTTSLYGIGFGPFIITNKHLFRRNNGTLVVQSLHGVFKVKDTTTLQQHLVDGRDMIIIRMPKDFPPFPQKLKFREPQREERICLVTTNFQTKSMSSMVSDTSCTFPSGDGIFWKHWIQTKDGQCGSPLVSTRDGFIVGIHSASNFTNTNNYFTSVPKNFMELLTNQEAQQWVSGWRLNADSVLWGGHKVFMVKPEEPFQPVKEATQL [S17A]		0.0669	0.0774	0.0862	0.0668	0.0941	0.0673	0.0737			0.0748	0.0611		0.0662		0.0694			
MGESLFKGPRDYNPISSAICHLTNESDGHTTSLYGIGFGPFIITNKHLFRRNNGTLVVQSLHGVFKVKDTTTLQQHLVDGRDMIIIRMPKDFPPFPQKLKFREPQREERICLVTTNFQTKSMSSMVSDTSCTFPSGDGIFWKHWIQTKDGQCGSPLVSTRDGFIVGIHSASNFTNTNNYFTSVPKNFMELLTNQEAQQWVSGWRLNADSVLWGGHKVFMVKPEEPFQPVKEATQL [S18A]		0.0436		0.0897		0.0778			0.0903	0.0549	0.072			0.0717	0.0881	0.0799			
MGESLFKGPRDYNPISSSICHLTNWSDGHTTSLYGIGFGPFIITNKHLFRRNNGTLVVQSLHGVFKVKDTTTLQQHLVDGRDMIIIRMPKDFPPFPQKLKFREPQREERICLVTTNFQTKSMSSMVSDTSCTFPSGDGIFWKHWIQTKDGQCGSPLVSTRDGFIVGIHSASNFTNTNNYFTSVPKNFMELLTNQEAQQWVSGWRLNADSVLWGGHKVFMVKPEEPFQPVKEATQL [E25W]		0.0622	0.0643	0.0813	0.0704	0.085	0.074	0.0552	0.0655		0.0696	0.0631	0.0711	0.0837	0.0791	0.0528		0.0665	
